Assay results as given in PubChem BioAssay AID504332 (National Center for Advancing Translational Sciences (NCATS), 2011).
Among all 350,000 compounds or so, about 31,000 (8.9%) were called active. Inconclusive results, whose numbers are uncertain, are shown with a selection of clear calls. Calls come from the whole dose curve; as a rule, active = well fitted inhibition curve with a large enough effect; inconclusive = small, poorly fitted or top-dose-only effect; inactive = no such curve, though single readings can be large or run the other way. Potencies beside an inconclusive call are fits to weak or partial responses and may not hold up.

Each compound was assayed against Histone-lysine N-methyltransferase EHMT2 (Homo sapiens) (UniProt Q96KQ7) (assay: qHTS Assay for Inhibitors of Histone Lysine Methyltransferase G9a). Conditions: G9a H3K9 monomethylation, AlphaScreen, 2 h; activity, negative = inhibition: at 59 µM (top of the series) unless noted.
How it was run: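 AlphaScreen detection with an anti-monomethyl H3K9 antibody quantified product after a 2 h room-temperature reaction containing 500 nM biotinylated H3K9 peptide, 20 µM SAM and 20 nM enzyme, which had been preincubated 15 min with compound.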
% is set by controls: 0 for no effect and ±100 for the full control effect; potency is the fitted concentration of half-maximal effect; tags give direction and shape of the fitted curve.
Note: nearly all actives have a fitted effect of over 75% in size.

Chain of UniProt Q96KQ7 (Q96KQ7 whole entry, looked up): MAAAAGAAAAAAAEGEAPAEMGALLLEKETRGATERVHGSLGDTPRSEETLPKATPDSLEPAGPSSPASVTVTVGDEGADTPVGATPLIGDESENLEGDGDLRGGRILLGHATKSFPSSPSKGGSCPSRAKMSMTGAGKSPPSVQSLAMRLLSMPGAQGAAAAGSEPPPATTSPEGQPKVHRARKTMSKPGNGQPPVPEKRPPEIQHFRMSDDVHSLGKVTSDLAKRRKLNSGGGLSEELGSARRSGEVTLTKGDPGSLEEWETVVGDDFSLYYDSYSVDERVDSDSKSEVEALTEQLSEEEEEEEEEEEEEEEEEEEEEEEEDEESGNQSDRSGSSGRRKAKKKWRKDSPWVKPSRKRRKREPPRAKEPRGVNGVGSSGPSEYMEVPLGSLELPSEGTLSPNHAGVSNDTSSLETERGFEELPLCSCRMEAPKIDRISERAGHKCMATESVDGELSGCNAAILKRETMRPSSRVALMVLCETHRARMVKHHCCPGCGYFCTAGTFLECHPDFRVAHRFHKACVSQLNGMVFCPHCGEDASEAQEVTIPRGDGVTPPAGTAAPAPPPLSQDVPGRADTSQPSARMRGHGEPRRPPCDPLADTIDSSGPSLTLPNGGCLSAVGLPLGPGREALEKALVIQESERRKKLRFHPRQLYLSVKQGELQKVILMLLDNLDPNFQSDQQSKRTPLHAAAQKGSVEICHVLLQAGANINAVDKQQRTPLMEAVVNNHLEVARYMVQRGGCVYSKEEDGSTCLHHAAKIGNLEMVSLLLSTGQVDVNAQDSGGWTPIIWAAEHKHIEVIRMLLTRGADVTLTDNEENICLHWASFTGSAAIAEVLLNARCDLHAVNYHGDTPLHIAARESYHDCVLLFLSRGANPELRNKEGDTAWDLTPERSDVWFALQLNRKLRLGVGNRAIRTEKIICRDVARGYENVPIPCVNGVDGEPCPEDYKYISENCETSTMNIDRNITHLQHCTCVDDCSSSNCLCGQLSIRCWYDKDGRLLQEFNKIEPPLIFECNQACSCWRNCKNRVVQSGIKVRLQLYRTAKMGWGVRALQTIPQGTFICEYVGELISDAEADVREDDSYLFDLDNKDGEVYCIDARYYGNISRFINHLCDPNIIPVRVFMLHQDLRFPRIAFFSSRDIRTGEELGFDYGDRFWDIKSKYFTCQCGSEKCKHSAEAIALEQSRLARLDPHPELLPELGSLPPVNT

Structure (SMILES)	Potency	activity, negative = inhibition
CC(=O)Nc1ccc(NC(=O)c2ccc3c(c2)N(Cc2cccc(Cl)c2)C(=O)c2ccccc2S3(=O)=O)cc1	inconclusive: 17.8 µM [inhibitor, single point]	–
CC(=O)Nc1nc(C)c(-c2csc(Nc3cccc(C(C)=O)c3)n2)s1	active: 39.8 µM	–
Cc1ccc(C(=S)N2CCN(Cc3ccccc3)CC2)s1	active: 17.8 µM	–
CCCCOC(=O)c1[nH]c2c(c1C)C(=O)CC(c1cc(OC)c(OC)c(OC)c1)C2 (centres undefined)	inconclusive: 0.708 µM [inhibitor, full curve, poor fit]	–
COc1ccc(CNC(=O)C(C)N2Cc3ccccc3C2=O)cc1 (centres undefined)	inactive	–
CCN(CC)S(=O)(=O)c1ccc(N=Nc2c(N)[nH]c(=O)[nH]c2=O)cc1	inactive	–
CN(Cc1ccccc1)C(=O)C1CCN(Cc2ccc(F)cc2)CC1	active: 7.94 µM	–
CCCc1ccc(OCC(=O)Nc2sc3c(c2C(=O)OC)CCCCC3)cc1	inconclusive: 3.98 µM [inhibitor, partial curve, poor fit]	–
COC(=O)C1(Cc2ccc(O)cc2)OC(=O)C(O)=C1c1ccc(O)cc1 (centres undefined)	inconclusive: 0.891 µM [inhibitor, partial curve, poor fit]	–
O=C(NCCCO)c1cc([N+](=O)[O-])cc2c1C=Cc1ccccc1O2	inconclusive: 1.12 µM [inhibitor, full curve]	–
CCCCOc1ccccc1C(=O)Nc1nonc1-c1ccccc1	inactive	–
CCOC(=O)N1CCN(C(=O)c2cc(COc3c(F)cccc3F)on2)CC1	inactive	–
Cc1ccc(-n2c(SCC(=O)NCc3cccs3)nnc2-c2ccoc2C)cc1	inconclusive: 70.8 µM [inhibitor, partial curve]	–
CC(=O)Oc1ccc(/C=N/NS(=O)(=O)c2ccc(C)cc2)c(OC(C)=O)c1	active: 39.8 µM	–
O=C(CCN1C(=O)/C(=C/c2ccco2)SC1=S)Nc1ccc(O)cc1C(=O)O	active: 28.2 µM	–
COc1cc2c(cc1OC)C(COc1ccccc1OC)N(C(=O)C(C)(C)C)CC2 (centres undefined)	inconclusive: 31.6 µM [inhibitor, single point]	–
Cc1cccc(NC(=O)C(Cc2ccccc2)n2cccc2)c1C (centres undefined)	inactive	–
CCOc1ccc(NC(=O)c2cc3c(s2)-c2ccccc2OC3)cc1	inactive	–
Cc1cccc(NC(=S)NC(=O)C2CC2)c1	inconclusive: 50.1 µM [inhibitor, partial curve, poor fit]	–
O=C(NCc1cccnc1)/C(=C\c1ccc(-c2ccc(Cl)c(Cl)c2)o1)S(=O)(=O)c1ccccc1	inconclusive: 28.2 µM [inhibitor, single point]	–
Oc1ccc(CCc2n[nH]c(=S)n2-c2ccc(F)cc2)cc1	active: 6.31 µM	–
COc1cccc(C(=O)O/N=C(\N)c2ccccn2)c1	inactive	–

Structure (SMILES)	Potency	activity, negative = inhibition
COc1cc(OC)c(NC(=O)N2CCc3c(sc4c3CCCC4)C2c2ccccc2)cc1Cl (centres undefined)	inconclusive: 25.1 µM [inhibitor, partial curve, poor fit]	–
COc1cccc(/C=C2\SC(=S)N(CCCC(=O)N3CCCCC3CCO)C2=O)c1 (centres undefined)	inconclusive: 25.1 µM [inhibitor, full curve, poor fit]	–
O=C(NC(Cc1ccccc1)C(=O)O)/C(=C/c1ccc([N+](=O)[O-])cc1)NC(=O)c1ccco1 (centres undefined)	inconclusive: 89.1 µM [inhibitor, single point]	–
CC(C)Cn1c(SCC(=O)N2CCN(C(=O)c3ccco3)CC2)nc2ccccc2c1=O	inconclusive: 50.1 µM [inhibitor, partial curve, poor fit]	–
Cc1ccc(CNC(=O)CCCN2C(=O)c3cccnc3Oc3ccc(Cl)cc32)cc1	inactive	–
CCS(=O)(=O)N1Cc2ccccc2CC1C(=O)Nc1nc2ccc(C)cc2s1 (centres undefined)	inconclusive: 35.5 µM [inhibitor, single point]	–
COc1ccc2cc3c(N)c(C(=O)NCc4ccco4)sc3nc2c1	inconclusive: 8.91 µM [inhibitor, partial curve, poor fit]	–
COc1ccc(NC(=O)NCCCN2CCCC2=O)cc1	inconclusive: 0.708 µM [inhibitor, partial curve, poor fit]	–
COCC(=O)Oc1c(S(=O)(=O)c2ccc(C)cc2)c(C)nn1-c1ccccc1	–	inconclusive: -92.9% [inhibitor]
CCOC(=O)CCNC(C(=O)OCC)c1ccccc1 (centres undefined)	inconclusive: 7.94 µM [inhibitor, partial curve, poor fit]	–
CS/C(=N\S(=O)(=O)c1cccs1)Nc1cccc(Cl)c1C	inconclusive: 89.1 µM [inhibitor, single point]	–
O=C1CCN(S(=O)(=O)c2ccccc2)C2CCCCC12 (centres undefined)	inactive	–
c1ccc2c(c1)ncn2CCOCCOCCn1cnc2ccccc21	inconclusive: 14.1 µM [inhibitor, single point]	–
CCn1c(O)c(/C=C/C=C/C=Nc2ccccc2)sc1=S	active: 14.1 µM	–
Cc1cccc(N2CCN(C(=O)Cn3cnc4sc(C)c(S(=O)(=O)N5CCN(c6ncccn6)CC5)c4c3=O)CC2C)c1 (centres undefined)	inactive	–
CCOC(=O)CC1COCCN1Cc1cn(C)nc1-c1ccccc1F (centres undefined)	inconclusive: 0.562 µM [inhibitor, partial curve, poor fit]	–
CCc1nc2ccc(C(=O)NCc3ccco3)cc2nc1CC	–	inactive: -22.2% [at 12.7 µM]
CCCCn1c(SCC(=O)OCC)nc2c1c(=O)[nH]c(=O)n2C	active: 10 µM	–
CCOC(=O)c1ccc(NC(=O)CSc2nccn2-c2ccc(OCC)cc2)cc1	inconclusive: 1.12 µM [inhibitor, partial curve, poor fit]	–
O=c1c(-c2cccc(F)c2)nc2cncnc2n1Cc1ccccc1	–	inactive: 0.186% [at 12.7 µM]
Cc1cccc(-c2nc(CSCC(=O)N3CCN(c4ccccc4)CC3)c(C)o2)c1	inconclusive: 8.91 µM [inhibitor, partial curve, poor fit]	–
COc1ccc(NC(=O)c2ccc3ccccc3n2)cc1S(=O)(=O)N1CCCCC1	inconclusive: 39.8 µM [inhibitor, single point]	–
